Assay results: publication PMC12136788
The other results are listed elsewhere or left out.

T1: UNK ZnF1-3 (human, UniProt Q9C0B0 31-174)
T1 sequence: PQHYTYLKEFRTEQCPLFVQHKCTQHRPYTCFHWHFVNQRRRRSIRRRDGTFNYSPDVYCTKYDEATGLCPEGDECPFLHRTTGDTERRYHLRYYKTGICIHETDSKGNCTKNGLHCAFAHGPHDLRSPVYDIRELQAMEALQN

B1: chr17:62495991:62495992:-_ENSG00000108654_ENST00000581693|hu_mus|FALSE|FALSE (ssRNA)
RNA: GGGAGUUCUACAGUCCGACGAUCCACCAUAAUUACUGCUGCACUGCAGUCAUUUCUGCAUUUCCCAUGUUUCUUAAAUAACUAUCUUGUCUGAUAACACACAAUAUAAAGAGCAAUUAUGAAAAACAGACAUUUACAUAUACUCAACAGAGGAUUGAGCAUCA
B2: chr17:64801638:64801639:+_ENSG00000154229_ENST00000413366|hu_mus|hu_hu_hu_mus_False|8_108 (ssRNA)
RNA: GGGAGUUCUACAGUCCGACGAUCUAUAAAUACAUAUACAUAUGUACACAUAUAUAGUAAAACCCUAGUUAAACGUGUAAAGUAGCCAUUCAUUUUUAAAAUUACAUCUACAUUAAAAAAUUAAUAUAUCUGAUACAGUGCCAGCAACAGAGGAUUGAGCAUCA
B3: chr2:181286759:181286760:+_ENSMUSG00000000826_ENSMUST00000072334|mus_mus|FALSE|FALSE (ssRNA)
RNA: GGGAGUUCUACAGUCCGACGAUCGUGUUAACUGAACAUUAGAAGGGUAGGAAAGGUCAUAAACAUUGCACAGAAUCAUCUAAAGUAAUCUUAAAAUACAGUCAAAAGGAAGACAAGGAAAGACAUCACUGGGCACAAACAGAACAACAGAGGAUUGAGCAUCA
B4: 31360173_31360293_6090_CDS_ENSMUSG00000006307_ENSMUST00000006470|mouse|control|control (ssRNA)
RNA: GGGAGUUCUACAGUCCGACGAUCAGGGCCAGACACCACGGUCACAGGGAAGUGGACAUAGUGAGUGGUAGGGCUGGCCUCCUCCUCUGAGCUGUCCCCUGGACCUCCCUGGCUGCUCCCCACUGCCCCAGCAGCCACAAUCUCCAACAGAGGAUUGAGCAUCA
B5: 49334798_49334918_355_3pUTR_ENSG00000134287_ENST00000256682|human|control|control (ssRNA)
RNA: GGGAGUUCUACAGUCCGACGAUCGCAUCCAGGCCCACCAUCAGGAUGCGCAUCUCCUUCUUCCCAAUCAGGCUCUUGAGAAGGUUUCCAAAGAUAUUGCCCAUGAUCACAGCAGCUGCUUUCUGGGGACAGUGGGGCCCAAGUCAACAGAGGAUUGAGCAUCA
B6: chr2:217001844:217001845:+_ENSG00000079246_ENST00000392132|hu_hu|hu_hu_hu_mus_False|1_18 (ssRNA)
RNA: GGGAGUUCUACAGUCCGACGAUCACCAACUUGAGGAUUAGAUCUUUUGUCAUAAGCAUAUCGGACGAUGGCGACCAUGUUUAACUCAUCCAAAGCAUGAACGAGAGAGGAAAGGGCAACUGCAGCUGCCUCAUCAUCUCUUGCCAACAGAGGAUUGAGCAUCA
B7: chr17:80560191:80560192:+_ENSG00000141568_ENST00000335255|hu_mus|FALSE|FALSE (ssRNA)
RNA: GGGAGUUCUACAGUCCGACGAUCUUUACUAGAGUGGGAAAUUACGCCAAGGACAAAGUCUACAUAAAGAAACAAACAACAAACCCAGCAAGCUAGAGCAGGUACGUGCGUGCAGCCUGACGGCUGGAAGGCUCCCAGGGUCUCCAACAGAGGAUUGAGCAUCA
B8: chr14:92628060:92628061:+_ENSG00000165934_ENST00000298875|hu_mus|motif|central (ssRNA)
RNA: GGGAGUUCUACAGUCCGACGAUCUUGACAUCAUGUCCUUUACACAAUGGCAUACUGUUCAUAUAAAAGGUCUCGUAUCCGGUAAAAGUCUUGACAAAGGCAGCCUUCUAAUCCGAUGCGUCCAGUUUCUGUUCUGCGAACUGCCAACAGAGGAUUGAGCAUCA
B9: chr2:42509997:42509998:+_ENSG00000143924_ENST00000318522|hu_mus|hu_hu_hu_mus_True|48_58 (ssRNA)
RNA: GGGAGUUCUACAGUCCGACGAUCUCGCUGAGUCCUCUCCUCAUAAUUAAACAGGACUACCACUGAGGCGAUAAAAUAAACUAUUUUCCCGGUCGGAAGCAGGUAUACAUUCGCUCUACAGUCCUUUCCUCGAUAACCGUAUACCAACAGAGGAUUGAGCAUCA
B10: chr17:57816259:57816260:+_ENSG00000062716_ENST00000262291|hu_hu|motif|central (ssRNA)
RNA: GGGAGUUCUACAGUCCGACGAUCCAGAUAAAGCAGAAAGGUGUGCAGCCCUGUUCCAAGCCCAACAGAAGACAAAAUUCCGGAGCCGGUCCAGUAGGCAUACAAAAGAAACUGUUUCUCUAUACGUUGCACAUACUGUUGAUGCAACAGAGGAUUGAGCAUCA
B11: chr1:39494564:39494565:+_ENSG00000168653_ENST00000372967|hu_hu|hu_hu_hu_mus_True|88_108 (ssRNA)
RNA: GGGAGUUCUACAGUCCGACGAUCAUGUGCACGUCUCAUCGUUUUGUGCCGAAGCAAGCACUCUUCGAAGUCAUCGAACUCUAUCUUGCACUCCUUUUUCGCCCGGGUCCCACCGAUCCCGUGUGCACACUCUAUCCACUCUUUCAACAGAGGAUUGAGCAUCA
B12: chr13:46067487:46067488:+_ENSG00000136152_ENST00000349995|hu_hu|motif|central (ssRNA)
RNA: GGGAGUUCUACAGUCCGACGAUCGAUCAAUGGCCUGAAGACAUCAUACAAUGACACACACAGUUUCUCCAAAAGCUCAUCGGAUUUUGAUGUUGGUUUUGUGAAAAAUUCAUUGUAAAGUUGGUGUUCAUCCUGGCAGACAUGCAACAGAGGAUUGAGCAUCA
B13: chr5:37294552:37294553:-_ENSG00000113569_ENST00000381843|hu_mus|FALSE|FALSE (ssRNA)
RNA: GGGAGUUCUACAGUCCGACGAUCAUUCAUGGUCUGUAUCACAAACCCCACAUCCCAGUUUAAGGUACAAACUUGCUGCUCCAAGAACUGCACGAUAAAAUCCAGAGGGAAAAACCGAGGCGUCCCAGCAUAGAUUUUGCCGAGCAACAGAGGAUUGAGCAUCA
B14: chr11:100882373:100882374:+_ENSMUSG00000019302_ENSMUST00000044721|mus_mus|mus_mus_mus_hu_True|48_48 (ssRNA)
RNA: GGGAGUUCUACAGUCCGACGAUCUUCCUGGUUUGUGUUGAUUUCCUUCAGUUCAUUUUCAAUCUUCUCAAAAUUGGCCUCUAAGUCGAUCAUGUCCCGGGGGAAGGGAACCUCUGGGUUUUCACCGGUGUCCAUAAUCGGAAUCAACAGAGGAUUGAGCAUCA
B15: chr16:1859243:1859244:-_ENSG00000063854_ENST00000397353|hu_hu|FALSE|FALSE (ssRNA)
RNA: GGGAGUUCUACAGUCCGACGAUCAUCAAGACUGAAUUUCCCGCACGGACCAGCAGGAAAGCCAGUUACCUAAAAGAGCCUAAUCCCCAAAUCCGCUGAAGGUGCAGGGCGGCCUCAGUCCCGGGGCAUCUUGAACUGGUCCUUCAACAGAGGAUUGAGCAUCA
B16: 27242051_27281840_773_CDS_ENSMUSG00000009621_ENSMUST00000056176|mouse|control|control (ssRNA)
RNA: GGGAGUUCUACAGUCCGACGAUCCAGCUCACUGUUUCUUAGUCCAAAUUUGUCAUGGCAGACUUUGAGGAAGGUGCGAAUAUUCUUCAGACACAAGAACUGGGACAUCUGCGGCCGGAAGUUGAUGUCCUUAAGGUCGAUGGACAACAGAGGAUUGAGCAUCA
B17: 124712484_124713586_393_CDS_ENSG00000119965_ENST00000481909|human|control|control (ssRNA)
RNA: GGGAGUUCUACAGUCCGACGAUCGUAAAGGAAGCAGGGGUUUUCAUCUUUGUUGUUGUGGUUUCUCUUCAAAAUCACCAGAUCCUGACCUGGAGCAGGCGGUGCCAGCAGCUCCUCCCAGUCGAAGUCACCGGGGCCGAGACCCAACAGAGGAUUGAGCAUCA
B18: chr2:26769575:26769576:-_ENSMUSG00000015790_ENSMUST00000167661|mus_hu|FALSE|FALSE (ssRNA)
RNA: GGGAGUUCUACAGUCCGACGAUCUGGAUUGUUCUCAGGGACAAAAGGCUGCCUGGUUUCUGUCAGCCUCACCAUCCCAAUGAGGUCCACUUCUCCCUCAAUCUGGCCUUUCUGCCGGGUUUCAGGAUUCACUUUCUUCCUGGGCAACAGAGGAUUGAGCAUCA
B19: chr4:153332861:153332862:-_ENSG00000109670_ENST00000281708|hu_hu|FALSE|FALSE (ssRNA)
RNA: GGGAGUUCUACAGUCCGACGAUCCUCCUCUUGUUGUCUGAGUUGCUGUUGCUGUUCCUCCUCUACCACACGAUUCAUCUGUUCUUCAUCUACCUGGCUUGAGGAAGGGUUACCUCUCAGAGAGCCUCCAGUUCGUCGUCUUUUCAACAGAGGAUUGAGCAUCA
B20: chr14:66974463:66974464:+_ENSMUSG00000022044_ENSMUST00000074523|mus_hu|mus_mus_mus_hu_False|1_108 (ssRNA)
RNA: GGGAGUUCUACAGUCCGACGAUCUUGUAGGAUGAUUUAUUCAGGGGAUCGGCCAGGAAGCAGGAGCAGAACAAGGACACCAGCGGGAGCUCCUUCAUCUUCUCUUUGUAGGCAGCAAGGGUCAUGUUUCUGGGAUCCUGGUGGCAACAGAGGAUUGAGCAUCA
B21: chr14:66974463:66974464:+_ENSMUSG00000022044_ENSMUST00000074523|mus_hu|mus_mus_mus_hu_False|8_28 (ssRNA)
RNA: GGGAGUUCUACAGUCCGACGAUCUUGUAGGACGACUUAUUCAGGGGAUCGGCCAGGAAGCAGGAGCAGAACAAGGACACCAGCGGGAGCUCCUUCAUCUUCUCUUUAUAGGCUGCAAGGGUCAUGUUGGCUGGAAUUGGUGGCCAACAGAGGAUUGAGCAUCA
B22: chr9:95013113:95013114:-_ENSG00000196305_ENST00000443024|hu_hu|hu_hu_hu_mus_False|58_88 (ssRNA)
RNA: GGGAGUUCUACAGUCCGACGAUCCUCAGUCAGAAAGGGCGUGUAAGGAGCCAUAAGUCUGCACAGAGAAAGCAGGACACUAAACAAUGUCUCCAGAGCCAUGACACAGUCUUCCACCCCACUCUCACCCUUUAACCUCCUCCUCAACAGAGGAUUGAGCAUCA

Biological target: T1, UNK ZnF1-3
Assay: nsRBNS (natural sequence RNA bind-n-seq); RBNS binding buffer (assumed for nsRBNS): 25 mM Tris pH 7.5, 150 mM KCl, 3 mM MgCl2, 0.01% Triton X-100, 500 ug/ml BSA, 20 U/ml SUPERase-In, 4 C; UNK is unkempt and MSI1 is Musashi-1; names of the RNAs are library labels; protein concentration not given here; high values mean tight binding

| Binder | binding signal |
| --- | --- |
| B1 | 1.14 enrichment R |
| B2 | 1.7 enrichment R |
| B3 | 2.41 enrichment R |
| B4 | 0.861 enrichment R |
| B5 | 1.7 enrichment R |
| B6 | 1.09 enrichment R |
| B7 | 1.16 enrichment R |
| B8 | 0.754 enrichment R |
| B9 | 1.29 enrichment R |
| B10 | 1.24 enrichment R |
| B11 | 0.59 enrichment R |
| B12 | 1.33 enrichment R |
| B13 | 0.977 enrichment R |
| B14 | 0.556 enrichment R |
| B15 | 0.999 enrichment R |
| B16 | 1.21 enrichment R |
| B17 | 0.739 enrichment R |
| B18 | 0.378 enrichment R |
| B19 | 0.378 enrichment R |
| B20 | 1.79 enrichment R |
| B21 | 2.11 enrichment R |
| B22 | 1.72 enrichment R |
